SMILES strings stand for the structures. Where “and” joins values, the source holds several entries; their conditions need not be identical. Equal entries are not always repeated. Structures can show the parent of a compound that is named as a salt.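 Method: 48-hour compound exposure of cells in 96-well plates, five concentrations, linear interpolation of endpoints. GI50: concentration for 50% inhibition of growth.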 Calls of active or inactive are those of the source. No stated cut-off is given here; in the data, active = GI50 up to about 1.1 µM and inactive = higher. Peptide text beside a SMILES is read from it. A value given as a limit tells only on which side of the number the result lay.

This assay concerns NCI-H322M. The assay is described as follows: NCI anticancer screen, dose series, 48 h.
Take `OC[C@H]1O[C@@H](Oc2cc(O)cc(/C=C/c3ccc(O)cc3)c2)[C@H](O)[C@@H](O)[C@@H]1O` [PICEID]: the GI50 is inactive: > 100 µM.

For the compound `O=C1CC[C@@H](C(=O)N2CSC[C@H]2C(=O)O)N1` [PIDOTIMOD] (HELM PEPTIDE1{[Glp].[O=C(O)[C@@H]1CSCN1[*:1]]}$$$$V2.0), the GI50 was inactive: > 100 µM.

Take `Clc1ccccc1-c1nc(-c2ccncc2)no1` [PIFEXOLE]: the GI50 was inactive: > 100 µM.

Regarding `CC[C@@H]1C(=O)OC[C@@H]1Cc1cncn1C` [PILOCARPINE HYDROCHLORIDE], the GI50 was inactive: > 100 µM.

For the compound `O=c1[nH]c2ccccc2n1C1CCN(CCCC(c2ccc(F)cc2)c2ccc(F)cc2)CC1` [PIMOZIDE], the GI50 is inactive: 10.1 µM.

For the compound `O=C(O)/C=C/C=C/c1ccc2c(c1)OCO2` [PIPERIC ACID], the GI50 was inactive: > 100 µM.

For `O=C(CCBr)N1CCN(C(=O)CCBr)CC1` [PIPOBROMAN], the GI50 was inactive: 118 µM.

With `CNc1c2c(c3nc4ccccc4c4c3c1N=C4)NCCC2=O` [PLAKINIDINE A], the GI50 is inactive: 4.06 µM.

As for `COc1cc([C@@H]2c3cc4c(cc3[C@H](O)[C@H]3COC(=O)[C@H]23)OCO4)cc(OC)c1OC` [PODOFILOX], the GI50 is active: < 0.005 µM.

On to `CC1(C)CCC[C@]2(C)[C@@H](C=O)C(C=O)=CC[C@@H]12` [POLYGODIAL], for which the GI50 was inactive: 50.9 µM.

In the case of `CC(=O)Oc1c2oc3cc(O)c(O)cc3c2c(OC(C)=O)c2oc3cc(O)c(O)cc3c12` [POLYOZELLIN], the GI50 is inactive: 58.5 µM.

Turning to `CO[C@@]12[C@H](COC(N)=O)C3=C(C(=O)C(C)=C(N)C3=O)N1C[C@H]1[C@@H]2N1C` (stereo partly drawn) [PORFIROMYCIN], the GI50 is inactive: 4.41 µM.

As for `C=C(C)[C@@H]1CCC2=C(CC[C@]3(C)[C@@H]([C@@H](CCC=C(C)C)C(=O)O)[C@H](O)C[C@@]23C)[C@@]1(C)CCC(=O)O` [PORICOIC ACID G], the GI50 was inactive: > 100 µM.

As to `O=C([O-])C(O)C(O)C(=O)O.[K+]` (stereo not drawn) [POTASSIUM HYDROGENTARTRATE], the GI50 is inactive: > 100 µM.

Turning to `COc1cc2nc(N3CCN(C(=O)c4ccco4)CC3)nc(N)c2cc1OC` [PRAZOSIN HYDROCHLORIDE], the GI50 was inactive: 18.4 µM.

On to `OC(CCN1CCCCC1)(c1ccccc1)c1ccccc1` [PRIDINOL], for which the GI50 was inactive: > 100 µM.

Take `Nc1ccc2cc3ccc(N)cc3nc2c1` [PROFLAVINE SULFATE]: the GI50 was inactive: 1.35 µM and inactive: 1.8 µM.

For the compound `CC(CN1c2ccccc2Sc2ccccc21)N(C)C` (stereo not drawn) [PROMETHAZINE HYDROCHLORIDE], the GI50 was inactive: 20.5 µM.

As for `O=C(NCCSSCCNC(=O)/C(Cc1ccc(O)c(Br)c1)=N/O)/C(Cc1ccc(O)c(Br)c1)=N/O` [PSAMMAPLIN A], the GI50 was inactive: 1.59 µM.

As for `O=C1c2ccccc2C(=O)c2c(O)c(O)cc(O)c21` [PURPURIN], the GI50 is inactive: 43.6 µM.

With `NCCCCN` [PUTRESCINE HYDROCHLORIDE], the GI50 is inactive: > 100 µM.

As to `COc1ccc2c(c1)-c1nn(CCCN(C)C)c3ccc([N+](=O)[O-])c(c13)N2` [PYRAZOLOACRIDINE], the GI50 is active: 0.277 µM.

Turning to `CN(C)C(=O)Oc1ccc[n+](C)c1` [PYRIDOSTIGMINE BROMIDE], the GI50 is inactive: > 100 µM.

As for `CCc1nc(N)nc(N)c1-c1ccc(Cl)cc1` [PYRIMETHAMINE], the GI50 was inactive: > 100 µM.

As for `[O-][n+]1ccccc1S` [PYRITHIONE ZINC], the GI50 is inactive: 2.94 µM.

Turning to `O=c1c(O)c(-c2ccc(O)c(O)c2)oc2cc(O)cc(O)c12` [QUERCETIN], the GI50 is inactive: 30.5 µM.

As to `O=C1c2ccc(O)c(O)c2C(=O)c2c(O)ccc(O)c21` [QUINALIZARIN], the GI50 was inactive: 24.9 µM.

With `O=C1c2ccccc2C(=O)c2c(O)ccc(O)c21` [QUINIZARIN], the GI50 was inactive: > 100 µM.

These data come from ChEMBL document CHEMBL1201862, “PubChem BioAssay data set” (2004).
